Experimental data taken from PMC10907643.
Results are given in words; binding and its absence hold for the method and conditions named. Binding seen in cells or lysates may run through a third protein. Some entries that bind do so weakly or less than the wild type.

Target: T1, AGR2 (endogenous, mouse colon) (mouse (endogenous in colon tissue)) (UniProt O88312)
T1 sequence: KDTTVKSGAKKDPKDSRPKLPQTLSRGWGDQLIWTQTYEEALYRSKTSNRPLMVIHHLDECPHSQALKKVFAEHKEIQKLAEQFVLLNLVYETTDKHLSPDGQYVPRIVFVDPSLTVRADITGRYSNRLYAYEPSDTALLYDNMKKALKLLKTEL
Experiment: co-IP; anti-AGR2 (clone 6C5) on Protein G Dynabeads, lysates of digested mouse colon in E1A buffer, 2 h; blot for IRE1β; Agr2-deficient mice as negative control

B1: IRE1β (endogenous, mouse colon) (protein, UniProt Q9Z2E3 34-911)
chain: VRPESLLFVSTLDGSLHALNKQTGDLKWTVKDDPIIQGPMYVTEMAFLSDPADGSLYVLGTQKQQGLMKLPFTIPELVHASPCRSSDGVFYTGRKQDAWFVVDPESGETQMTLTTEGLSTPQLFIGRTQYTVSMHDLRTPALRWNTTYRRYSAPLLNGSPGKYMSHLTSCGMGLLLTVDPGSGIVLWTQDLGVPVTGIYTWHQDGLHQLPHLTLARDTLHFLVLRWGHIRLPASSYQDTATQFSSLDTQLLMTLYVGKEEAGFYVSKALVHAGVALVPRGLTLAPMDGPTTDEVTLQVSGEREGSPSTAVRYPSGSVALPSQWLLIGYHEPPPVLHTTMLRVHPIPGKVSAETRASEDLHAPPVFFELLNLRREDPELHPEEKASDSYPGLGSQDLLAATFTAILLGAWVLYLMRQQQQSPSAPAGPPDLSQDAQGQLSRDILQDQRRFQSPSEPAQPPHDPEAGQPTVVGKISFNPKDVLGRGAGGTFVFRGQFEGRAVAVKRLLRECFGLVRREVQLLQESDRHPNVLRYFCTEHGPQFHYIALELCQASLQEYVESPDLDRWGLEPTTVLQQMMSGLAHLHSLHIVHRDLKPANILMAGPDSQGQGRVVISDFGLCKKLPVGRCSFSLHSGIPGTEGWMAPELLQLPPDSPTSAVDIFSAGCVFYYVLSGGSHPFGESLYRQANILSGDPCLAQLQEETHDKVVALDLVRAMLSLLPQDRPSAGWVLAHPLFWSRAKELQFFQDVSDWLEKEPDQGPLVSALEAGSYKVVREDWHKHISAPLQADLKRFRSYKGTSVRDLLRAMRNKKHHYRELPAEVRQTLGQLPAGFIQYFTQRFPRLLLHTHRAMRTCASESLFLPYYPPALEARRPDATKS
In the case of B1, the binding is reported as “binds”.
